# The supplement of paper PMC9446081
# Hit rate of the full screen: of about 39,000 compounds, about 220 (0.56%) showed activity. This is one part of the list.
# System: Escherichia coli K-12 BW25113
# Assay: relative growth (OD600 normalised to plate interquartile mean) (fraction); higher = less growth inhibition, active = 0.2 or less
# Settings: 50 µM; LB; incubation time: overnight (16-24 h)
# 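Further: static incubation at 37 °C against the wild-type strain, values averaged over two biological replicates.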
row,Structure (SMILES),relative growth
1,C[C@@H]1CCCCO[C@@H](CN(C)Cc2ccncc2)[C@H](C)CN([C@H](C)CO)C(=O)c2cc(NC(=O)c3ccccc3)ccc2O1,inactive: 1.01
2,COc1ccc(C#Cc2ccc3c(c2)[C@@]2(C(=O)N3C(=O)N[C@@H](C)c3ccccc3)[C@H](c3ccc(OCCO)cc3)N3[C@H](c4ccccc4)[C@H](c4ccccc4)OC(=O)[C@H]3[C@@H]2C(=O)O)cc1,inactive: 1.01
3,C[C@H]1CN([C@@H](C)CO)C(=O)CCCn2nncc2CO[C@H]1CN(C)S(=O)(=O)c1ccc2c(c1)OCCCO2,inactive: 0.999
4,OC[C@H]1O[C@H](OC[C@H]2O[C@@H](O)[C@H](O)[C@@H](O)[C@@H]2O)[C@H](O)[C@@H](O)[C@@H]1O,inactive: 1.04
5,Cc1noc(C)c1NC(=O)Nc1cccc2c1O[C@H](CN(C)Cc1ccc(C(=O)Nc3ccccc3N)cc1)[C@@H](C)CN([C@@H](C)CO)C2=O,inactive: 0.969
6,CO[C@@H]1[C@H](O[P@@](=O)(S)OC[C@H]2O[C@@H](n3cnc4c(N)ncnc43)C[C@@H]2O)[C@@H](CO)O[C@H]1n1ccc(=O)[nH]c1=O,inactive: 0.98
7,CC1=CC2C(CC1=O)C2(C)C (stereo not given),inactive: 0.852
8,Cc1noc(C)c1NC(=O)N(C)C[C@H]1Oc2c(NS(=O)(=O)c3ccccc3)cccc2C(=O)N([C@H](C)CO)C[C@@H]1C,inactive: 0.96
9,CN(C)CC#Cc1ccc([C@@H]2[C@H]3CN(C(=O)c4cccnc4)CC(=O)N3[C@H]2CO)cc1,inactive: 0.994
10,C[C@@H]1CN([C@H](C)CO)C(=O)c2cc(NC(=O)NC3CCCCC3)ccc2O[C@@H](C)CCCCO[C@H]1CN(C)C(=O)c1ccncc1,inactive: 0.991
11,C[C@@H]1CN([C@@H](C)CO)C(=O)c2cc(NS(=O)(=O)c3ccc(F)cc3)ccc2O[C@@H](C)CCCCO[C@@H]1CN(C)Cc1ccccc1,inactive: 0.948
12,O=C(C[C@H]1C=C[C@@H](NS(=O)(=O)c2ccccc2F)[C@H](CO)O1)NCCCN1CCOCC1,inactive: 1
13,C[C@H]1CN([C@@H](C)CO)C(=O)c2cc(C#CC3CCCCC3)cnc2O[C@H]1CN(C)C(=O)c1ccncc1,inactive: 0.995
14,Cc1[nH]c2ncnn2c(=O)c1NS(C)(=O)=O,inactive: 0.986
15,COc1ccc(NC(=O)N(C)C[C@H]2OCCCC[C@H](C)Oc3ccc(NS(=O)(=O)c4ccc(F)cc4)cc3C(=O)N([C@H](C)CO)C[C@@H]2C)cc1,inactive: 1
16,COc1ccnc(N)c1,inactive: 0.989
17,COc1ccccc1-c1cnc2c(c1)C(=O)N([C@@H](C)CO)C[C@@H](C)[C@@H](CN(C)C(=O)c1ccncc1)O2,inactive: 1.03
18,Cc1noc(C)c1S(=O)(=O)N(C)C[C@@H]1OCCCC[C@@H](C)Oc2ccc(N(C)C)cc2C(=O)N([C@@H](C)CO)C[C@@H]1C,inactive: 1.04
19,CC(C)(C)S(=O)N1Cc2cc(C(=O)NCc3ccc(Oc4ccccc4)cc3)nc(-c3cccc(-c4cccc(F)c4)c3)c2[C@@H]1CCO (stereo not given in full),inactive: 1.01
20,C[C@@H]1CN([C@@H](C)CO)C(=O)c2c(c3ccccc3n2C)-c2ccccc2CO[C@H]1CN(C)Cc1cccc2c1OCCCO2,inactive: 1.01

row,Structure (SMILES),relative growth
1,C[C@@H]1CN([C@H](C)CO)C(=O)c2cccc(NC(=O)c3ccc(-c4nccs4)cc3)c2O[C@H]1CN(C)Cc1ccccc1,inactive: 1.01
2,C[C@@H]1CN([C@@H](C)CO)C(=O)c2ccccc2-c2ccccc2CO[C@H]1CN(C)C(=O)Nc1cccc(C(F)(F)F)c1,inactive: 1
3,O=C1[N-]C(=O)C(c2ccccc2)(c2ccccc2)N1.[Na+],inactive: 1.07
4,CCS(=O)(=O)Nc1ccc2c(c1)C(=O)N(C)[C@@H]1CC[C@@H](CC(=O)NCCCN3CCOCC3)O[C@H]1CO2,inactive: 0.991
5,CC(C)=C[C@H]1[C@@H](c2nc3cc(Br)ccc3o2)C1(C)C,inactive: 1
6,CC(C)NC(=O)NCC[C@@H]1CC[C@H](NC(=O)CN(C)C)[C@@H](CO)O1,inactive: 0.966
7,O=C(N[C@@H](c1ccccc1)c1ccc2ccccc2n1)C1CCN(Cc2ccc(Cl)c(Cl)c2)CC1,inactive: 1.01
8,O=C1NC(=O)C2(CCCC2)N1,inactive: 1.01
9,C[C@@H]1CN([C@@H](C)CO)C(=O)c2cc(NC(=O)c3ccccc3)ccc2O[C@@H](C)CCCCO[C@@H]1CN(C)Cc1ccc(C(=O)O)cc1,inactive: 1
10,CO[C@@H]1CN(C)C(=O)c2cc(NC(=O)c3ccc(Oc4ccccc4)cc3)ccc2OC[C@@H](C)N(C(C)=O)C[C@H]1C,inactive: 0.993
11,CCCNC(=O)C[C@H]1CC[C@@H]2[C@H](COc3ccc(NS(=O)(=O)c4ccccc4C)cc3C(=O)N2C)O1,inactive: 1.01
12,C[C@@H]1CN([C@H](C)CO)C(=O)c2cccc(NC(=O)NC3CCCCC3)c2O[C@@H]1CN(C)Cc1ccc(Oc2ccccc2)cc1,inactive: 1.03
13,Cc1ccc(S(=O)(=O)N(C)C[C@@H]2OCCCC[C@@H](C)Oc3ccc(NC(=O)Nc4ccc5c(c4)OCO5)cc3C(=O)N([C@@H](C)CO)C[C@@H]2C)cc1,inactive: 1.04
14,CCOC(=O)C(CCc1ccccc1)NC(C)C(=O)N1Cc2cc(OC)c(OC)cc2CC1C(=O)O.Cl (stereo not given),inactive: 0.851
15,C[C@@H]1CN([C@H](C)CO)C(=O)Cc2cc(NC(=O)CCCCCC(=O)Nc3ccccc3N)ccc2O[C@H]1CN(C)Cc1ccc(-c2ccccc2)cc1,inactive: 0.974
16,C[C@@H]1CCCCO[C@H](CN(C)C(=O)Nc2cccc3ccccc23)[C@@H](C)CN([C@@H](C)CO)C(=O)c2cc(NC(=O)c3ccncc3)ccc2O1,inactive: 0.995
17,CC1CCCC(C)N1 (stereo not given),inactive: 1.11
18,C[C@@H]1CN([C@H](C)CO)C(=O)c2cc(C#Cc3ccncc3)cnc2O[C@H]1CN(C)S(=O)(=O)c1ccccc1F,inactive: 0.993
19,COc1ccc(NC(=O)N(C)C[C@H]2Oc3c(NS(C)(=O)=O)cccc3C(=O)N([C@H](C)CO)C[C@@H]2C)cc1,inactive: 0.987
20,C[C@H](CO)N1C[C@H](C)[C@@H](CN(C)Cc2ccc3c(c2)OCO3)OCCCC[C@H](C)Oc2ccc(NC(=O)c3ccccc3)cc2C1=O,inactive: 1.01
